# Test results reported in the supplement of paper PMC12067230.
# This is a noisy data set.
# Assay: amyloid nucleation score relative to library mode (yeast Sup35 reporter selection) (log enrichment difference); higher = more amyloid nucleation; sequences are the first 22 residues of the Bri2 peptide extended by up to 12 random residues
# Settings: random library (experiment): 1;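 active = nucleation score significantly above 0 at FDR 0.05; inactive = not significantly above 0 or absent from output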
# 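Note: [psi-pin-] Saccharomyces cerevisiae expressing SupN fusions, induced by 100 µM Cu2SO4, selected 7 d at 30 °C without adenine and uracil, scored by deep sequencing of output versus input.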
row,Sequence,amyloid nucleation score
1,EASNCFAIRHFENKFAVETLICWGMVG,inactive
2,EASNCFAIRHFENKFAVETLICIRENVPVAQSRE,0.262
3,EASNCFAIRHFENKFAVETLICILGCCMSYAGLW,inactive
4,EASNCFAIRHFENKFAVETLICHPQAVYCEKWGC,0.92
5,EASNCFAIRHFENKFAVETLICNCDSVC,inactive
6,EASNCFAIRHFENKFAVETLICGHTGSRYETL,inactive
7,EASNCFAIRHFENKFAVETLICLLRNPVRAPSGR,inactive
8,EASNCFAIRHFENKFAVETLICGASGSQFAWEPR,inactive
9,EASNCFAIRHFENKFAVETLICPGESLNQGMFMA,inactive
10,EASNCFAIRHFENKFAVETLICVM,-0.471
11,EASNCFAIRHFENKFAVETLICGKLPLLYSGREG,inactive
12,EASNCFAIRHFENKFAVETLICGQTRSLVGAVLR,inactive
13,EASNCFAIRHFENKFAVETLICWYDR,inactive
14,EASNCFAIRHFENKFAVETLICGRNCAHKDRNHA,2.55
15,EASNCFAIRHFENKFAVETLICWKVVWHWDSEAE,inactive
16,EASNCFAIRHFENKFAVETLICLSWVHETLVTSG,inactive
17,EASNCFAIRHFENKFAVETLICAAKVEASEVFGR,inactive
18,EASNCFAIRHFENKFAVETLICFDMMSYCTSYAM,0.556
19,EASNCFAIRHFENKFAVETLICVQQYE,inactive
20,EASNCFAIRHFENKFAVETLICFLWDIK,6.06
21,EASNCFAIRHFENKFAVETLICLPARLELLWCMC,0.664
22,EASNCFAIRHFENKFAVETLICTERMNRFLCVVR,0.77
23,EASNCFAIRHFENKFAVETLICVES,inactive
24,EASNCFAIRHFENKFAVETLICEE,-0.683
25,EASNCFAIRHFENKFAVETLICRNLLRYRHIVRW,inactive
26,EASNCFAIRHFENKFAVETLICHSWRDCMIRVLC,-0.265

row,Sequence,amyloid nucleation score
1,EASNCFAIRHFENKFAVETLICFTDNDEM,inactive
2,EASNCFAIRHFENKFAVETLICNCQGAGGYRVAT,3.37
3,EASNCFAIRHFENKFAVETLICVDLDMLCGCFRS,8.64
4,EASNCFAIRHFENKFAVETLICADTLYWSLGVLV,0.451
5,EASNCFAIRHFENKFAVETLICLVV,inactive
6,EASNCFAIRHFENKFAVETLICASKEQGRDAV,0.655
7,EASNCFAIRHFENKFAVETLICVFVGWVFWTFSS,5.03
8,EASNCFAIRHFENKFAVETLICPVMSVQGVRALA,inactive
9,EASNCFAIRHFENKFAVETLICLEPGDMLTVPDR,inactive
10,EASNCFAIRHFENKFAVETLICRTGSARSVGDQV,inactive
11,EASNCFAIRHFENKFAVETLICTGM,inactive
12,EASNCFAIRHFENKFAVETLICGDGGYCEMSGGL,inactive
13,EASNCFAIRHFENKFAVETLICGTAYNFH,6.94
14,EASNCFAIRHFENKFAVETLICMPPICPYQTR,5.94
15,EASNCFAIRHFENKFAVETLICKAFHTYHNLS,3.9
16,EASNCFAIRHFENKFAVETLICCLSFDDSCCWYA,7.97
17,EASNCFAIRHFENKFAVETLICVGHR,inactive
18,EASNCFAIRHFENKFAVETLICVSSLCAWQGPKS,2.4
19,EASNCFAIRHFENKFAVETLICMCVSYNASNARF,7.56
20,EASNCFAIRHFENKFAVETLICEAGAV,inactive
21,EASNCFAIRHFENKFAVETLICYVGRCRWPGRYP,inactive
22,EASNCFAIRHFENKFAVETLICLYEWMGTLHRR,inactive
23,EASNCFAIRHFENKFAVETLICCIITKNYNRLSD,7.3
24,EASNCFAIRHFENKFAVETLICGYLKNIVGILIW,inactive
25,EASNCFAIRHFENKFAVETLICLVGEP,inactive
26,EASNCFAIRHFENKFAVETLICQVTPPRRFGM,4.62

# Same assay, conditions: random library (experiment): 2
row,Sequence,amyloid nucleation score
1,EASNCFAIRHFENKFAVETLICKLLMVRV,inactive
2,EASNCFAIRHFENKFAVETLICVDSCPDALTSKV,inactive
3,EASNCFAIRHFENKFAVETLICNIRGRFLCRVAT,inactive
4,EASNCFAIRHFENKFAVETLICLWIGSKQTRDIK,inactive
5,EASNCFAIRHFENKFAVETLICKGWWRE,inactive
6,EASNCFAIRHFENKFAVETLICYQAVMRDHCHLV,0.423
7,EASNCFAIRHFENKFAVETLICGMWQICYRQKYW,inactive
8,EASNCFAIRHFENKFAVETLICGQSSARAVTCIA,inactive
9,EASNCFAIRHFENKFAVETLICMGKDYSKIGVSG,inactive
10,EASNCFAIRHFENKFAVETLICDRRLDNSCYGRL,inactive
11,EASNCFAIRHFENKFAVETLICIERVV,inactive
12,EASNCFAIRHFENKFAVETLICTIIDSWLQTWYV,inactive
13,EASNCFAIRHFENKFAVETLICYEGNQFPVSVRG,inactive
14,EASNCFAIRHFENKFAVETLICFSNGCEPASSFW,6.02
15,EASNCFAIRHFENKFAVETLICLDRMNSLIRVFE,inactive
16,EASNCFAIRHFENKFAVETLICVCFRLFERWSRK,inactive
17,EASNCFAIRHFENKFAVETLICMNSSLWF,6
18,EASNCFAIRHFENKFAVETLICIYHGVTCLPEVA,1.8

row,Sequence,amyloid nucleation score
1,EASNCFAIRHFENKFAVETLICDNRKMCEFFLLF,6.13
2,EASNCFAIRHFENKFAVETLICVTTFLN,inactive
3,EASNCFAIRHFENKFAVETLICLILL,3.8
4,EASNCFAIRHFENKFAVETLICKLVYSSADNLVW,3.71
5,EASNCFAIRHFENKFAVETLICPCYMYFVSRW,inactive
6,EASNCFAIRHFENKFAVETLICPSVSLNAIGFCF,2.53
7,EASNCFAIRHFENKFAVETLICNSYGI,5.65
8,EASNCFAIRHFENKFAVETLICTRTFGLFSRLHP,inactive
9,EASNCFAIRHFENKFAVETLICPRYRSGEYSRTT,inactive
10,EASNCFAIRHFENKFAVETLICDDNARDWVGGSF,inactive
11,EASNCFAIRHFENKFAVETLICHYNSTSLCLHVN,inactive
12,EASNCFAIRHFENKFAVETLICVVLVLKGHHNAS,inactive
13,EASNCFAIRHFENKFAVETLICLMFMHITANMSY,-0.215
14,EASNCFAIRHFENKFAVETLICLVDQGLMQRQWK,6.17
15,EASNCFAIRHFENKFAVETLICQTYNGS,inactive
16,EASNCFAIRHFENKFAVETLICRWLGKSPRRELP,0.664
17,EASNCFAIRHFENKFAVETLICPSCRIVNLDSFH,5.24
18,EASNCFAIRHFENKFAVETLICIRRMQKDYVITG,inactive

# Same assay, conditions: random library (experiment): 3
row,Sequence,amyloid nucleation score
1,EASNCFAIRHFENKFAVETLICLMRLCRGYCDFR,5.06
2,EASNCFAIRHFENKFAVETLICMSAFVGL,4.23
3,EASNCFAIRHFENKFAVETLICCARVGPFCWCAS,7.77
4,EASNCFAIRHFENKFAVETLICEPNRLQRLFWES,inactive
5,EASNCFAIRHFENKFAVETLICTFVMKGYGSSGW,inactive
6,EASNCFAIRHFENKFAVETLICDGCSRVRWVKCE,inactive
7,EASNCFAIRHFENKFAVETLICMEGPLFSGWFRR,6.86
8,EASNCFAIRHFENKFAVETLICTQSGRIISGGPV,inactive
9,EASNCFAIRHFENKFAVETLICRVYG,2.28
10,EASNCFAIRHFENKFAVETLICWAMGCPFHVHRG,7.35
11,EASNCFAIRHFENKFAVETLICLVTFGWMCRSLV,7.25
12,EASNCFAIRHFENKFAVETLICNVCNVTGRVCAR,inactive
13,EASNCFAIRHFENKFAVETLICDGRHDN,inactive
14,EASNCFAIRHFENKFAVETLICGTRARWPDRSGQ,inactive
15,EASNCFAIRHFENKFAVETLICVMIHI,2.62
16,EASNCFAIRHFENKFAVETLICGHGVNVCFIIE,3.19

row,Sequence,amyloid nucleation score
1,EASNCFAIRHFENKFAVETLICDRYSAKSISYEL,2.32
2,EASNCFAIRHFENKFAVETLICFRRLKKLSCEAL,inactive
3,EASNCFAIRHFENKFAVETLICRKS,0.798
4,EASNCFAIRHFENKFAVETLICCMSVVSPLLCAK,0.721
5,EASNCFAIRHFENKFAVETLICPRYPAGRCVFWA,inactive
6,EASNCFAIRHFENKFAVETLICMYVTDRLFTVTA,inactive
7,EASNCFAIRHFENKFAVETLICCQSWWVHGEKCM,0.845
8,EASNCFAIRHFENKFAVETLICGRRSPVEDRPVG,inactive
9,EASNCFAIRHFENKFAVETLICCSLPGLAFVSGW,7.97
10,EASNCFAIRHFENKFAVETLICMGSFS,4.79
11,EASNCFAIRHFENKFAVETLICYCLVYGIISHER,inactive
12,EASNCFAIRHFENKFAVETLICLPS,inactive
13,EASNCFAIRHFENKFAVETLICVHRCLNSMFCSW,inactive
14,EASNCFAIRHFENKFAVETLICGSRRERWLGGWR,5.53
15,EASNCFAIRHFENKFAVETLICLVLRSHVVVLAG,inactive
16,EASNCFAIRHFENKFAVETLICIRQMRNQIVREV,inactive
